# Screen size: about 310,000 compounds; about 2,200 (0.71%) showed an effect of 50% or more. Effects have a minus sign here. The list shows a part of the results.
# Target: human ether-à-go-go-related gene (hERG) potassium channel (human, UniProt Q12809)
# Experiment: primary screen, population patch clamp on CHO cells stably expressing hERG
# human ether-à-go-go-related gene (hERG) potassium channel, sequence (Q12809 whole entry, looked up): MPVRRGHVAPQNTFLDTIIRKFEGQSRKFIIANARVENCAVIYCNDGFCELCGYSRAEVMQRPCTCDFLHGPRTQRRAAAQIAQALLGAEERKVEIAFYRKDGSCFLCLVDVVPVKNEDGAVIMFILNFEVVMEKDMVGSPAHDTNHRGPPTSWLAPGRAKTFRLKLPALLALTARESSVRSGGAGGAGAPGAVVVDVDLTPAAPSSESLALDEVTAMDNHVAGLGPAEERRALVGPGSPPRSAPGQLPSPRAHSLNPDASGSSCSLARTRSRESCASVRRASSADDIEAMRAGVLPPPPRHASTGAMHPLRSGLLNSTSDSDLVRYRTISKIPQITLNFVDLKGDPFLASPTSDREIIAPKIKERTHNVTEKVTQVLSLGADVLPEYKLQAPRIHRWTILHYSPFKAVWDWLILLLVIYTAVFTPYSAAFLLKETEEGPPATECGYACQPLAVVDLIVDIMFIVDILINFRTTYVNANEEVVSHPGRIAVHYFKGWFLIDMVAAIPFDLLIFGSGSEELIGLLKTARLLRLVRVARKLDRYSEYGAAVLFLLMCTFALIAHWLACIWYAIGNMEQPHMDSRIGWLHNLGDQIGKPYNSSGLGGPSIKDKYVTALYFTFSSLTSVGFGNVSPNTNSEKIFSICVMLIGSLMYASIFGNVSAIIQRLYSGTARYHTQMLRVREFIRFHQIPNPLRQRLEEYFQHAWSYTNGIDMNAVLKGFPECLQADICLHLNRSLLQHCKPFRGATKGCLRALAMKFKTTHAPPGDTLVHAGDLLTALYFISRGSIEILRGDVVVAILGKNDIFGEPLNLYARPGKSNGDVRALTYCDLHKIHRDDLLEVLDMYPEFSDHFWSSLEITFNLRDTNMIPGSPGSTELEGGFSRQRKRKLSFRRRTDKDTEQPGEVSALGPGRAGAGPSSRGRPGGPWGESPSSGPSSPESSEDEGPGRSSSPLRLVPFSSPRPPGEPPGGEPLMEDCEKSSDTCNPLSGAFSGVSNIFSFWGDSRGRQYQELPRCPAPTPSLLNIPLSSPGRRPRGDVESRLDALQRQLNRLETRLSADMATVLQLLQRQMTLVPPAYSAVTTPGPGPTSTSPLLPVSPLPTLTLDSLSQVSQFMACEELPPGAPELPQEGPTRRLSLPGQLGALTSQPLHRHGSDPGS
row,SMILES,"hERG current change (%, negative = inhibition) at 1uM [%]"
1,Cc1cc(C(=O)O)c(CSCc2cc(C(=O)O)oc2C)o1,8.2
2,CC(C)C(C)(C#N)NC(=O)CN1C(=O)NC2(CCCc3ccccc32)C1=O (centres unmarked),18
3,O=C(OCCc1cc2ccccc2c(=O)o1)c1cccc(Br)c1,14.1
4,O=C(c1ccc(S(=O)(=O)N2CCOCC2)cc1)N1CCc2ccccc2C1,2.13
5,NNC(=O)c1ccc(Cn2cc(Cl)cn2)o1,15.5
6,O=C(N/N=C/c1cc([N+](=O)[O-])ccc1O)c1cccc(NC(=O)c2cccc(Cl)c2)c1,14.8
7,COC(=O)c1ccccc1NC(=O)c1cc2nc(C3CC3)cc(C(F)(F)F)n2n1,11.1
8,O=C(C1CCN(C2CCN(Cc3ccc4c(c3)CCO4)CC2)CC1)N1CCOCC1,4.48
9,COc1cccc(-c2cc(=O)c3cc(NC(=O)c4ccccc4)ccc3[nH]2)c1,-6.55
10,CC1(C)CC(=O)C(/C=N/c2ncccc2C(=O)O)=C(O)C1,6.24
11,CCN(CC)C(=O)CC(c1ccc(N(C)C)cc1)c1c(O)cc(OC)cc1OC (centres unmarked),11.8
12,COc1ccccc1NC(=O)C(C)OC(=O)c1ccc(-n2cnnn2)cc1 (centres unmarked),-18
13,Cc1nc2ccccc2c2oc(C(=O)NCC3COc4ccccc4O3)cc12 (centres unmarked),4.95
14,Cc1cc(=O)oc(C)c1C(=O)NCCNC(=O)c1c(C)cc(=O)oc1C,10.6
15,Cc1cc(/C=N/n2cnnc2)c(C)n1-c1ccc(Cl)cc1,0.149
16,Cc1ccc(CNC(=O)C(=O)NCCC2=CCCCC2)cc1,12.4
17,CCCCOC(=O)N1CCOCCOCCOCC1,10.8
18,COc1ccc(-n2c(SC)nc(O)c(Cc3ccccc3)c2=O)cc1,11.5
19,CC(Nc1ccccc1)c1ccncc1 (centres unmarked),5.57
20,CCOC(=O)C(C)c1n[nH]c(=O)c2ccccc12 (centres unmarked),-5.4
21,CCO/N=C(\C)c1c(O)c2ccccc2n(C)c1=O,11.9
22,OCCN1C[C@H](O)[C@@H](O)[C@H](O)[C@H]1CO,-0.311
23,C/C=C(\C)C(=O)Nc1cccc(C2=NOC3(C2)C[C@@H](C(N)=O)N(C(=O)c2cc([N+](=O)[O-])cc([N+](=O)[O-])c2C)C3)c1 (some centres unmarked),-6.7

row,SMILES,"hERG current change (%, negative = inhibition) at 1uM [%]"
1,COc1cccc(N2CCN(C(=S)Nc3cc(C)cc(C)c3)CC2)c1,10.2
2,c1ccc(-c2ccc3ccccc3n2)cc1,3.39
3,CCN(CC)c1ccc(S(=O)(=O)N2CCOCC2)cc1NC(=O)Cn1nc(C)c([N+](=O)[O-])c1C,-3.81
4,CCC(C)NS(=O)(=O)c1ccc(OCC(=O)Nc2ccc(F)cc2F)cc1 (centres unmarked),2.3
5,CC(C)Oc1ccccc1C1NC(=O)CCC1[N+](=O)[O-] (centres unmarked),15.3
6,O=C(c1ccc(Cl)cc1)c1cnc(Nc2ccccc2)s1,11.4
7,C(=N\n1cnnc1)/c1ccc(OCc2ccccc2)cc1,-5.84
8,O=C(NCc1ccccc1)/C(=C/c1cccc([N+](=O)[O-])c1)NC(=O)c1ccco1,-34
9,CCC1=C(c2ccc(C)cc2)S(=O)(=O)N=C1N1CCC(C(=O)NCCCN2CCCCC2)CC1,26.4
10,COc1ccccc1/C=C/C(=O)NCC(=O)N/N=C/c1cccnc1,16.9
11,Cc1ccc(S(=O)(=O)NCc2ccccc2)cc1C(=O)N(C)CC(=O)Nc1c(Cl)cccc1Cl,10.8
12,Clc1cc(Cl)cc(C2=NCCC(c3ccccc3)O2)c1 (centres unmarked),8.18
13,Cn1c(/C=C/c2ccc(Br)cc2)c([N+](=O)[O-])c(=O)n(C)c1=O,6.39
14,O=C(O)c1nn(CCOc2ccccc2F)c(=O)c2ccccc12,8.98
15,Cc1nn(-c2ccccn2)c2c1C(c1c(F)cccc1Cl)C1=C(N2)c2ccccc2C1=O (centres unmarked),5.07
16,O=S(=O)(c1ccc2c(c1)OCCO2)N1CCC(c2nc3ccccc3[nH]2)CC1,6.16
17,COC(=O)[C@@H]1C[C@@]2(O)[C@@H](O)[C@@H](O)[C@@H](O)C[C@H]2N1Cc1ccc(C(F)(F)F)cc1,13.2
18,CCCN(CCC)CCCNS(=O)(=O)c1cc(Br)cc2c1N(C(C)=O)CC2,15.5
19,Cc1ccc(SC(CC(=O)c2ccc(F)cc2)C(=O)O)cc1 (centres unmarked),15.1
20,CC(=O)N1CCSc2ccc(S(=O)(=O)Nc3ccc(C)cc3)cc21,13.1
21,O=C(O)c1cccc(S(=O)(=O)NCC2CCCO2)c1 (centres unmarked),-0.0655
22,O=C(CN1C(=O)NC2(CCCC2)C1=O)Nc1cc(Cl)ccc1Oc1ccccc1,9.36
23,Fc1ccccc1Cn1cnc(NC(=S)NCCc2ccccc2)n1,8.35

row,SMILES,"hERG current change (%, negative = inhibition) at 1uM [%]"
1,CCOc1ccc(N(CC(=O)Nc2ccccc2C(=O)NCc2ccco2)S(C)(=O)=O)cc1,-2.78
2,CCCOc1ccccc1Cn1c(=O)oc2ccc(C)cc21,17.3
3,CCC(Oc1cc(Cl)ccc1Cl)C(=O)NNC(=O)CCC(=O)O (centres unmarked),23.8
4,O=C(CSc1nc2ccccc2[nH]1)NCCCn1ccnc1,13.3
5,COc1ccccc1NC(=O)CCCC(=O)OC(C)C(=O)c1ccccc1 (centres unmarked),-8.43
6,COc1ccc(C(C(=O)NC2CCCCC2)N(CC2CCCO2)C(=O)CNC(=O)c2ccco2)cc1 (centres unmarked),-0.0855
7,CCCc1nn(C)c2c(=O)[nH]c(-c3cc(S(N)(=O)=O)ccc3OCC)nc12,8.68
8,COc1ccc(CCNC(=O)CN(Cc2ccc(Cl)cc2)S(C)(=O)=O)cc1,6.27
9,Cl.N=c1ccn(Cc2ccc([N+](=O)[O-])cc2)cc1,11.2
10,Cc1ccc(C(=O)C2CCN(CC(=O)Nc3ccc4c(c3)OCCO4)CC2)cc1,7.66
11,Cc1nnc(SCC(=O)Nc2cc(C(C)(C)C)nn2-c2ccccc2)s1,1.77
12,Cc1ccc(C)c(OCCC(=O)NNC(=O)c2ccncc2)c1,27.2
13,CN(C)CCCNC(=O)c1ccc(CN(c2ccccc2)S(C)(=O)=O)cc1,8.21
14,Cc1cccc(NC(=O)CSc2nc3ccccc3nc2N2CCCCC2)c1,-6.47
15,COC(=O)CSc1nc(-c2cccs2)ccc1C#N,9.92
16,OCC(Br)CBr (centres unmarked),12.7
17,O=C(NCCc1ccccc1)C1CC(=O)N(c2ccc3c(c2)OCCO3)C1 (centres unmarked),7.34
18,CN(C)S(=O)(=O)c1ccc(Oc2ccc(S(=O)(=O)N(C)C)cc2)cc1,4.07
19,COc1cccc(-c2cc(C(F)(F)F)nc(-n3cccn3)n2)c1,9.35
20,Cc1ncc(CSc2ccc(Cl)cc2)c(CO)c1O,12.9
21,COc1cc(/C=C2\CCOC2=O)cc(OC)c1OC,10.7
22,COc1ccc(S(=O)(=O)N2CCC(c3nc4ccccc4[nH]3)CC2)cc1,12.9
23,CC[C@@]12C(=O)N(c3ccccc3)C(=O)N1[C@H](c1ccc(Br)cc1)[C@@H]1C(=O)N(C(C)(C)C)C(=O)[C@@H]12,6.66

row,SMILES,"hERG current change (%, negative = inhibition) at 1uM [%]"
1,O=C(Cc1cccs1)Nc1nnc(Cc2ccccc2)s1,3.96
2,CSCC(=O)Nc1nc(-c2ccc3c(c2)OCCO3)cs1,-9.23
3,CCOC(=O)C1CCN(C(=O)C2CCN(S(=O)(=O)c3cc(Cl)ccc3Cl)CC2)CC1,-3.15
4,Cc1ccccc1C(=O)NC(=S)NC1CC1,17.5
5,CCOC(=O)C1(CCOC)CCN(C(=O)c2ccccc2-c2cccc(C)c2)CC1,14
6,CCOC(=O)CNC(=O)c1cc(-c2ccccn2)nc2c(C)c(Cl)ccc12,7.56
7,O=C(CSCC(=O)Nc1nc(-c2ccc3c(c2)OCO3)cs1)Nc1nccs1,14.1
8,C/C(=N\Nc1ccc(S(=O)(=O)N2CCOCC2)cc1[N+](=O)[O-])C(C)C,12.7
9,COc1ccc(C(=O)Nc2nc3cc4c(cc3s2)OCCO4)c(OC)c1,6.91
10,COc1ccccc1NC(=O)Cc1noc(CSc2nnc(C(F)(F)F)n2C)n1,8.37
11,CCOC(=O)N1CCC(NC(=O)c2cc(-c3ccc(OC)cc3)nc3ccccc23)CC1,13.1
12,Cc1nnc(N(C)C(=O)c2ccccn2)s1,13.8
13,Fc1ccccc1Nc1ncnc2c1nnn2Cc1ccccc1,8.46
14,Nc1nnc(CCCCCc2nnc(N)s2)s1,12
15,COc1cc(CCC(C)NCc2ccccc2)ccc1O (centres unmarked),0.614
16,Cc1cc(CN2CCOCC2)c(O)c(C2(C)CCCCC2)c1,9.4
17,CC(=O)/C(=C/c1ccc(N(C)C)cc1)C(=O)c1ccccc1,14.6
18,CCCCN(C)C1CCN(C(=S)Nc2cccc(OC)c2)CC1,0.288
19,CCCn1c(C)cc(/C=C(\C#N)C(=O)O)c1C,9.47
20,CC(C)NC(=O)C(=O)NNC(=O)C12CC3CC(CC(C3)C1)C2,10.7

# From publication PMC4336329 (PLoS ONE, 2015)
